Results published in the RNAGym collection of RNA variant scans (doi:10.7554/elife.90254).
The source gives no read counts; variants with many changes may rest on few reads.

B1: LINE1-mini (parent)
chain: GGCAGAGCUCAACACAGCGUGGCAAAGUGGCUGUGGCUAGACUGCC

Variants of: B1
Assay: self-cleavage, relative activity (ratio to wild type); higher = more cleavage; in vitro, sequencing; the parent is a self-cleaving ribozyme
Variant U9G G22A C23G A39G U43A has a self-cleavage of 0.02.
Variant U34A U38A A41G has a self-cleavage of 0.04.
In the case of A11C C18U G33A C37A A39U A41G U43A G44A C46A, the self-cleavage is reported as 0.
Variant G7A A11U A16C has a self-cleavage of 0.02.
Variant A12U G17A G27A G35C C46A has a self-cleavage of 0.01.
A12U U20A G21C G29U showed a self-cleavage of 0.18.
For C3A G40A U43A, the self-cleavage was 0.01.
A11G C13A G19U A41U gave a self-cleavage of 0.02.
With G1C G2U U9G A16C C18A the self-cleavage was 0.05.
A6G C15A C18G gave a self-cleavage of 0.
Work on A6G C8A C46A yielded a self-cleavage of 0.03.
C10G A12G C13U C15U G29U showed a self-cleavage of 0.04.
C3U C31U U38C showed a self-cleavage of 0.08.
Variant C10U A12G A16G G30C G40U A41G has a self-cleavage of 0.
C3U C23A U43A gave a self-cleavage of 0.07.
Variant C3G G21U G27U G29A C37U has a self-cleavage of 0.1.
Work on C13A G29U U32A G44U yielded a self-cleavage of 0.02.
With U9A C37U C42G the self-cleavage was 0.01.
G27A C31G G44A gave a self-cleavage of 0.12.
Variant G22A C31A C37A A41U has a self-cleavage of 0.08.
For A12U C31U C37G C42G, the self-cleavage was 0.02.
Variant A16C U20G G27C C31A G40C C42G has a self-cleavage of 0.01.
Work on G1U C10A A14U U34C yielded a self-cleavage of 0.03.
Variant C3G C13A U43A C45A has a self-cleavage of 0.11.
U20A C31U A41G C45G gave a self-cleavage of 0.05.
G2C G7U C18A G19U A25C A39C gave a self-cleavage of 0.18.
Work on G1U C15U G17U G21C A26G G27U yielded a self-cleavage of 0.09.
In the case of A12U A26C U38A, the self-cleavage is reported as 0.02.
For A4G C31A U38C A41U, the self-cleavage was 0.01.
For C3G C13A G40U, the self-cleavage was 0.07.
With G2U C15A A24C A25C U43C the self-cleavage was 0.
A26G U32G A41G C45A showed a self-cleavage of 0.
A39C G40U C42A showed a self-cleavage of 0.1.
With C10G A11U U34C U38A the self-cleavage was 0.01.
Variant G2U C10A A12C has a self-cleavage of 0.02.
Variant G1A G2U C15A C18U A24U G33U has a self-cleavage of 0.07.
A11U A16U G30A showed a self-cleavage of 0.07.
C8U C13A G27U G36C showed a self-cleavage of 0.32.
C18A A25U U28G showed a self-cleavage of 0.17.
For G5U G35C G40A, the self-cleavage was 0.
For U9G G21U G22A U28A C45U, the self-cleavage was 0.06.
G2C G36C A41G gave a self-cleavage of 0.04.
G2A G17C U28G U34A A41U showed a self-cleavage of 0.02.
G1A C18G G21C showed a self-cleavage of 0.43.
With G1C A4C C37G the self-cleavage was 0.04.
With C3U A24G C37A A41C the self-cleavage was 0.27.
G2U C10U G33U G35C showed a self-cleavage of 0.03.
Variant C23U G27U G36A has a self-cleavage of 0.02.
Variant C3G G17U G22C has a self-cleavage of 0.45.
G2A C10A C13U G17A gave a self-cleavage of 0.13.
G5A G22U C42U gave a self-cleavage of 0.64.
For G5A G17U A41G C45A, the self-cleavage was 0.01.
Work on G2C G17C C23U U34A G35C G40C yielded a self-cleavage of 0.04.
In the case of C18G G27U G30C, the self-cleavage is reported as 1.4.
With A12C C23U A39G G40A G44U the self-cleavage was 0.01.
Variant G19A G36A U38G A39C has a self-cleavage of 0.78.
In the case of C3A C10A A14G G19U G27C G36C U38A, the self-cleavage is reported as 0.01.
For G1U C8U A26G G33U, the self-cleavage was 0.03.
In the case of G2C A12G C15U G19U U43C G44A C45G, the self-cleavage is reported as 0.04.
C3U A25C U34C gave a self-cleavage of 0.06.
Work on G22A G30U G40U C46A yielded a self-cleavage of 0.16.
With C8U U20G A39G the self-cleavage was 0.
Variant C15G C18G G21C C23U has a self-cleavage of 0.14.
In the case of G2U G17U A25G G44U, the self-cleavage is reported as 0.01.
In the case of G19A C37U A39U, the self-cleavage is reported as 0.06.
Variant C8A A11G C13U G30U has a self-cleavage of 0.01.
Work on C8U G27U A41C C46G yielded a self-cleavage of 0.53.
With A26U G35A A39U the self-cleavage was 0.13.
For A6C U20G G30U U32C, the self-cleavage was 0.04.
With C23A G35A C37U G40U the self-cleavage was 0.08.
In the case of A16U G22A G29U, the self-cleavage is reported as 0.11.
Variant C8G G17A G33A has a self-cleavage of 0.03.
Variant G21U U38A G44A has a self-cleavage of 0.13.
With A16U G29A U32G the self-cleavage was 1.41.
In the case of A25C G33U C42U, the self-cleavage is reported as 0.03.
C3A A14C G29U showed a self-cleavage of 0.06.
With U20G U34G A41G the self-cleavage was 0.01.
With G2U U9G A11U C15G G22U the self-cleavage was 0.01.
Variant C8G U43C C46A has a self-cleavage of 0.01.
G7U C18G A39G gave a self-cleavage of 0.01.
C3G G17C G40U gave a self-cleavage of 0.07.
With U20A C23G U32A C37G the self-cleavage was 0.06.
G1C C15G G27U G33U showed a self-cleavage of 0.01.
